About 450 (0.94%) of roughly 48,000 compounds were called active. Inconclusive results (about 19%) are left out. Calls come from the whole dose curve; as a rule, active = well fitted inhibition curve with a large enough effect; inconclusive = small, poorly fitted or top-dose-only effect; inactive = no such curve, though single readings can be large or run the other way. The list shows a part of the results.
Assay: Primary qHTS for Identification of Small Molecule Inhibitors of Huntingtin Promoter Activity; note: nearly all actives have a fitted effect of over 50% in size
Details: HEK293 HTT promoter firefly luciferase reporter (activity 0% = vehicle and -100% = no light), 24 h; series mostly up to 57.5 µM; activity change, negative = inhibition: at the top concentration
Procedure, shortened: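 HEK293 Fluc reporter, 2,500 cells/well, 24 h pre-culture; cpds up to 57.5 uM final, 24 h 37 degrees C; Dual-Glo, 10 min RT; normalized vehicle = 0%, zero RLU = -100%.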
Potency is the fitted concentration of half-maximal effect.

Structure (SMILES)	activity change, negative = inhibition	Potency
Fc1ccc(NCc2ccccc2-c2nnc(-c3ccccc3Cl)o2)cc1Cl	inactive: 57.3%	
CCOc1ccc(C(c2c(O)cc(C)n(CCOC)c2=O)N2CCN(c3ccc(F)cc3)CC2)cc1 (stereo not drawn)	inactive: -7.82%	
Cc1cccc2cc(-c3nc(-c4cccs4)no3)c(=O)oc12	inactive: 19.8%	
Cc1sc2ncn(CC(=O)N3CCN(c4cccc(Cl)c4)CC3)c(=O)c2c1S(=O)(=O)N1CCC(C)CC1	inactive: 3.42%	
O=C(Nc1ccccc1Br)N[C@@H]1CCN(c2ccc(C(F)(F)F)cn2)C1	inactive: -3.96%	
CCN(CC)C(=O)Cn1c(=O)n(CCCCCC(=O)NCc2ccc(C)cc2)c(=O)c2sccc21	inactive: -13.9%	
CCOc1ccc(-n2c(=O)c3c(C)c(C)sc3n(Cc3ccc(C(C)(C)C)cc3)c2=O)cc1	inactive: -22.6%	
CC(=O)N1CCc2c(sc3c2c(=O)n(-c2cc(Cl)ccc2C)c(=O)n3C)C1	inactive: -9.42%	
CCCCNC(=O)Cn1nc(N2CCN(c3ccccc3OC)CC2)ccc1=O	inactive: 9.05%	
COc1cccc(C(=O)N2CCc3cc(OC)c(OC)cc3C2COc2ccc3c(C)cc(=O)oc3c2)c1 (stereo not drawn)	inactive: -5.15%	
CCn1cc(S(=O)(=O)c2cc(C)cc(C)c2)c(=O)c2cc(F)c(N3CCN(c4ccccc4)CC3)cc21	inactive: -25.5%	
COc1ccc(OCC(=O)N2CCN(C(=O)c3cccc(OC)c3OC)CC2)cc1	inactive: 8.43%	
CCCCN(C(=O)CCn1c(=O)oc2ccccc21)c1ccccc1	inactive: -9.61%	
CCOc1ccc(-c2cc(CCCC(=O)NCCc3ccc(SC)cc3)no2)cc1		active: 0.794 µM
COCCn1c(C)cc(O)c(C(c2ccccc2Cl)N2CCN(c3ccccc3)CC2)c1=O (stereo not drawn)	inactive: -11.6%	
O=C(NCC(c1ccco1)S(=O)(=O)c1cccs1)c1c(F)cccc1F (stereo not drawn)	inactive: -3.08%	
CCN(CC)C(=O)c1sc2c(c1C)c(=O)n(Cc1ccccc1)c(=O)n2Cc1c(C)cc(C)cc1C	inactive: -31.2%	
Cc1cccc(NC(=O)Cn2c(=O)n(CC3CCC(C(=O)NCCc4ccccc4)CC3)c(=O)c3ccccc32)c1C (stereo not drawn)	inactive: -12.6%	
Cc1ccc2[nH]c(C)c(CCNC(=O)c3cc4cc(Br)ccc4oc3=O)c2c1	inactive: -4.12%	
O=C(NCC(c1cccnc1)N1CCc2ccccc21)c1cccc(F)c1 (stereo not drawn)	inactive: -30.2%	
CCOC(=O)c1ccc(NC(=O)c2c(NCc3ccc(OC)c(OC)c3OC)sc3c2CCC(C)C3)cc1 (stereo not drawn)	inactive: -19.9%	
CCOc1ccccc1CNC(=O)CCCn1c(=O)c2cccn2c2ccc(F)cc21	inactive: -22.3%	
Cc1ccc(CNC(=O)c2cc(NS(=O)(=O)c3ccc(C)cc3)ccn2)cc1	inactive: -8.11%	
COC(=O)c1sc2cccc(F)c2c1S(=O)(=O)NCc1ccccc1Cl	inactive: 8.37%	

Structure (SMILES)	activity change, negative = inhibition	Potency
COc1ccc(CCNCc2c(C(=O)O)c(C)n(Cc3cccc(C)c3)c2C)cc1OC	inactive: -13.9%	
Cn1c(Oc2cccc(Cl)c2)nc2c1c(=O)n(Cc1ccccc1Cl)c(=O)n2C	inactive: -8.67%	
Cc1cc(C)cc(NC(=O)C2CCN(c3nnc(-n4c(C)ccc4C)s3)CC2)c1	inactive: -22.1%	
CCOC(=O)c1scc(-c2ccc(C)cc2)c1S(=O)(=O)N1CCN(c2ccccc2)CC1	inactive: -23.7%	
CCc1cccc(NC(=O)CN(C)S(=O)(=O)c2ccc3c(c2)n(C)c(=O)c(=O)n3C)c1	inactive: -15.3%	
CCOc1cc(C(=O)Nc2ccc3nc(N4CCN(C)CC4)cc(C)c3c2)cc(OCC)c1OCC	inactive: -29.8%	
COc1ccc(-c2noc(COc3ccc(C)cc3C)n2)cc1OC	inactive: -24%	
COc1ccc(-n2c(SCC(=O)Nc3ccc4c(c3)OCO4)nc3c([nH]c4ccccc43)c2=O)cc1	inactive: -14.1%	
CC(=O)c1ccc(NS(=O)(=O)c2ccc3[nH]c(=O)[nH]c3c2)cc1	inactive: 41.2%	
COc1ccc(S(=O)(=O)N(CC(=O)Nc2ccc(C)cc2)c2ccc(C)cc2)cc1OC	inactive: -4.81%	
COc1cccc(CNC(=O)C2=C(C)C(=O)OC23CCCCCC3)c1	inactive: -13.9%	
CCOc1ccc(C(=O)NCC(c2ccc3c(c2)OCO3)N2CCN(C)CC2)cc1 (stereo not drawn)	inactive: -6.82%	
CCOc1ccc(NC(=O)N2CCC(n3c(C)nc4cccnc43)CC2)cc1	inactive: 0%	
Cc1ccc(-c2nnc(Nc3ccc(O)cc3)c3ccccc23)cc1S(=O)(=O)NC(C)(C)CO	inactive: -19%	
CCOc1ccc(S(=O)(=O)N(CC(=O)Nc2ccc(OC)c(Cl)c2)c2ccccc2)cc1	inactive: -18.7%	
COc1cc2c(cc1OC)C(COc1ccccc1OC)N(C(=O)c1ccc(S(=O)(=O)N(C)C)cc1)CC2 (stereo not drawn)	inactive: -9.69%	
COc1ccc(Nc2nc3c(S(=O)(=O)c4ccc(C)cc4)nnn3c3ccsc23)cc1Cl	inactive: -5.64%	
Cc1ccc(/C=C/c2onc(C)c2S(=O)(=O)N2CCC(C(=O)N3CCN(c4cc(C)ccc4C)CC3)CC2)cc1	inactive: -24%	
O=C(NOCC(O)CO)c1cc(Br)c(F)c(F)c1Nc1ccc(I)cc1F (stereo not drawn)	inactive: -12.1%	
COc1cc(-c2nc(-c3ccccc3)c(-c3ccc(Br)cc3)[nH]2)cc(OC)c1O	inactive: -14.8%	
COC(=O)c1cc2sc(Cl)cc2n1Cc1nc(-c2ccccc2C)oc1C	inactive: -20.4%	
CC1CN(C(=O)N2CCC(C(=O)NCc3cccs3)CC2)c2ccccc2O1 (stereo not drawn)	inactive: -9.81%	
CCC1CCCCN1CCCNC(=O)c1c(O)nc2cc(C)ccn2c1=O (stereo not drawn)	inactive: -0.984%	
COc1cccc(CNC(=O)Cn2c(=O)nc(-c3ccccc3F)c3cc(Cl)ccc32)c1	inactive: -4%	

Structure (SMILES)	activity change, negative = inhibition	Potency
CC1CCN(S(=O)(=O)c2ccc3c(c2)N(CC(=O)NC(C)(C)C)C(=O)CS3)CC1	inactive: -21.2%	
COc1ccc(Nc2oc(/C=C/c3cc(OC)c(OC)c(OC)c3)nc2C#N)cc1	inactive: 0.263%	
Cc1oc2ncnc(N3CCCCC3)c2c1C(=O)N1CCN(c2ccc(Cl)cc2)CC1	inactive: 17.2%	
COc1ccccc1C(=O)Nc1ccc(S(=O)(=O)Nc2nc(C)cc(C)n2)cc1	inactive: -19.7% [at 11.5 µM]	
COc1ccc(S(=O)(=O)N(CC(=O)NCCc2ccccc2)c2ccc(Cl)cc2)cc1	inactive: -14.4%	
COc1ccc(NC(=O)c2ccco2)cc1NC(=O)c1cc(Br)ccc1Cl	inactive: -18.1%	
CCOc1ccc(C(=O)c2oc3ccccc3c2NC(=O)c2cc(=O)c3ccc(C)cc3o2)cc1	inactive: 2.02%	
COc1ccc(-c2nc3c4ccccc4n(CC(=O)N4CCN(c5ccccc5F)CC4)c(=O)n3n2)cc1	inactive: 11.9%	
CCCCN(CC)CCNC(=O)c1nn(C)c2c1CS(=O)(=O)c1ccccc1-2	inactive: 5.5%	
CCc1ccc(NC(=O)CCCc2nnc3n(C(C)CC)c(=O)c4sccc4n23)cc1 (stereo not drawn)	inactive: -20.1%	
Cc1ccc(NC(=O)CSc2nnc(NC(=O)NC3CCCCC3)s2)cc1	inactive: 23.8%	
COC(=O)c1ccccc1NC(=O)c1sc2nc(C)cc(C)c2c1NC(=O)c1ccccc1Cl	inactive: -13.9%	
Cc1cc(/C=C(\C#N)C(=O)Nc2ccccc2)c(C)n1-c1ccc(F)cc1	inactive: -3.1%	
COc1ccc(NC(=O)c2cc(C(C)=O)n3ccccc23)cc1Cl	inactive: 8.61%	
COc1ccc2c(CNCc3cccs3)c(C(=O)O)n(Cc3cccc(F)c3)c2c1	inactive: -16.3%	
CC(CNC(=O)c1ccc2nc(CCc3ccccc3)oc2c1)c1ccccc1 (stereo not drawn)	inactive: -2.24%	
COc1ccc(NC(=O)c2ncoc2-c2ccco2)cc1Cl	inactive: -20.5%	
COc1ccc(CNC(=O)c2cc(C3CC3)nc3c2c(C)nn3-c2cccc(Cl)c2C)cc1	inactive: 1.96%	
Cc1cccc(C(=O)Nc2ccc3nc(SCC(=O)N4CCc5ccccc54)sc3c2)c1	inactive: -13.6%	
COc1ccc(OC)c(-c2nnc3n(CCc4ccccc4)c(=O)c4ccccc4n23)c1	inactive: 42.5%	
COc1ccc(CNC(=O)Cn2ccc3cc(S(=O)(=O)N4CCCC4)ccc32)c(OC)c1	inactive: -6.58%	
CCn1c(=O)n(-c2ccc3c(c2)OCO3)c2nc(-c3cc(OC)ccc3OC)nc(C(N)=O)c21	inactive: -2.4%	
CCOc1ccc2oc(=O)cc(CN3CCN(C(=O)c4cccc(Cl)c4)CC3)c2c1	inactive: -5.79%	
Clc1ccc2ncc(-c3cccc(NC4CNC4)n3)n2c1	inactive: -24.6%	

Structure (SMILES)	activity change, negative = inhibition	Potency
CCN(CC)C(=O)Cn1c(=O)n(CCCCCC(=O)Nc2ccccc2)c(=O)c2sccc21	inactive: -0.415%	
NC(=O)C(=O)N/N=C/c1ccc([N+](=O)[O-])o1	inactive: 1.67%	
COC(=O)c1ccccc1NC(=O)Cn1c(=O)cc(-c2ccccc2)c2c(C)nn(C)c21	inactive: -22.9%	
CCOC(=O)c1sc2ncn(CC(=O)Nc3cc(C)cc(C)c3)c(=O)c2c1C	inactive: -12.6%	
O=C(NCc1ccccc1F)c1cc2ccccn2n1	inactive: 54%	
Cc1ccc2oc(=O)c3cc(C(=O)NCc4ccc(Cl)cc4)sc3c2c1	inactive: -7.95%	
COc1ccc(CNC(=O)c2ccc(NC(=O)N3CCCCc4ccccc43)cc2)c(OC)c1	inactive: -8.28%	
Cc1cccc(-c2nc(C)c(CCNC(=O)C(=O)Nc3c(C)cc(C)cc3C)s2)c1	inactive: -9.61%	
Cc1cc(SCC(=O)NCc2ccccc2Cl)nc(=O)[nH]1	inactive: 2.48%	
COc1ccc(-c2csc3nc(-c4ccc(F)cc4)oc(=O)c23)cc1OC	inactive: 0.851%	
Cc1ccc(-c2noc(CSc3nnc(C)n3-c3ccc(F)cc3)n2)cc1	inactive: -23.5%	
Cc1cc(O)c(C(c2ccccc2)N2CCN(c3ccccc3F)CC2)c(=O)n1Cc1ccco1 (stereo not drawn)	inactive: -5.4%	
CCC(=O)N1CCc2cc(Br)cc(S(=O)(=O)CCC(=O)NCc3ccc(C)cc3)c21	inactive: -8.81%	
COc1ccc(CNC(=O)C(=O)Nc2ccccc2OC)cc1	inactive: -24.8% [at 11.5 µM]	
COc1cc(NC(=O)CN2C(=O)C(c3ccc(C)cc3)=NC23CCCCCC3)cc(OC)c1	inactive: -26.9%	
CC(=O)Nc1c(C)nn(-c2ccccc2)c1N1CCC(C(=O)Nc2ccc(Cl)cc2C)CC1	inactive: -5.46%	
O=C(c1ccccc1)c1ccc2n1CCC2C(=O)O (stereo not drawn)	inactive: 34.8%	
COc1ccc(N2CCN(C(=O)CCc3nnc4n(C)c(=O)c5sccc5n34)CC2)cc1	inactive: -1.86%	
COc1c(N2CCNC(C)C2)c(F)cc2c(=O)c(C(=O)O)cn(C3CC3)c12 (stereo not drawn)	inactive	
CCCC(=O)Nc1nc2c(s1)CC(C(C)(C)C)CC2 (stereo not drawn)	inactive: 4.69%	
COc1ccc(-n2c(=O)c3ccc(C(=O)NCc4ccc(C)cc4)cc3n(Cc3ccc(F)cc3Cl)c2=O)cc1	inactive: -8.52%	
